Source: PubChem BioAssay AID1159614 (National Center for Advancing Translational Sciences (NCATS), 2016)
Screen size: about 45,000 compounds; about 65 (0.1%) were called active. Calls come from the whole dose curve; as a rule, active = well fitted activation curve with a large enough effect; inconclusive = small, poorly fitted or top-dose-only effect; inactive = no such curve, though single readings can be large or run the other way. This is one part of the list.

biological target: Galactocerebrosidase (Homo sapiens) (UniProt P54803); assay: A Novel Cell-Based Assay to Identify Small Molecules for B -Galactocerebrosidase; settings: 145M-Twi-hGALC-G270D cells (Twitcher mouse brain line with human GALC G270D), HMU-beta-Gal fluorescence, 48 h; series mostly up to 57.5 µM; activation: at the top concentration; note: 0% is about no effect; nearly all actives have a fitted effect of over 65% in size
Procedure, shortened: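 Mutant human GALC (G270D), stably expressed in a Twitcher mouse brain cell line lacking endogenous GALC, is measured in live-treated cells via 6-hexadecanoylamino-4-methylumbelliferyl-β-galactoside hydrolysis (0.1 mM final, pH 5.2) with fluorescent detection.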

UniProt P54803, sequence (P54803 whole entry, looked up): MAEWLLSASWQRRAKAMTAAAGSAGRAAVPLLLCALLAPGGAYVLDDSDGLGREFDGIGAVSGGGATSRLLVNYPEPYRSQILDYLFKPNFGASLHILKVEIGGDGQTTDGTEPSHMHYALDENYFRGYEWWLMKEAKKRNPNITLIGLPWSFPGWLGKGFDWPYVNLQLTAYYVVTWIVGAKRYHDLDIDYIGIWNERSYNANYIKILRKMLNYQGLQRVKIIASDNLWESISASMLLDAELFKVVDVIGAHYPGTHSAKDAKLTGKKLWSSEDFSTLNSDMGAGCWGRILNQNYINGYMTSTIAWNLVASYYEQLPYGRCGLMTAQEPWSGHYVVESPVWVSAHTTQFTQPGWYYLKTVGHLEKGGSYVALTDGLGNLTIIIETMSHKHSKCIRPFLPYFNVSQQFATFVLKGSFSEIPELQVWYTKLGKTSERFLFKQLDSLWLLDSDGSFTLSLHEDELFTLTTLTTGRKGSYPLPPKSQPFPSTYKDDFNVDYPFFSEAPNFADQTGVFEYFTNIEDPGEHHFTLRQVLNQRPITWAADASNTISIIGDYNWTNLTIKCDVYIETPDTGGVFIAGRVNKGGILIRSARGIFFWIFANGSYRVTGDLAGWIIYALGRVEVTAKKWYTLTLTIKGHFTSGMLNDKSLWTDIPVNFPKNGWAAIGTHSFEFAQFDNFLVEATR

activation, inactive:
CCCCC(=O)OC1=CN(Cc2ccccc2)S(=O)(=O)c2ccccc21 -6.25%
Cc1ccc(-n2nnnc2SCC(=O)NCCc2ccccc2)cc1C 8.77%
COc1ccc(NC(=O)c2ccc(NC(=O)CCS(=O)(=O)c3cccs3)cc2)cc1Cl -6.98%
CCC(C)NC(=O)Cn1c(=O)n(-c2ccc(Cl)cc2)c(=O)c2c3c(sc21)CCCC3 (stereo unspecified) -7.66%
CCOc1ccc(N(CC(=O)OC)S(=O)(=O)c2ccc3c(c2)n(C)c(=O)c(=O)n3C)cc1 -13.2%
CCCN[C@H]1CCc2nc(N)sc2C1 -18%
O=C(Nc1ccc(F)cc1F)C1CCN(C(=O)c2cnn(-c3ccccc3)c2-n2cccc2)CC1 -6.23%
O=C(NCC(c1ccc2c(c1)OCO2)N1CCN(c2ccccc2)CC1)c1ccc(F)c(F)c1 (stereo unspecified) -15.9%
C=CCC(CC=C)(CNC(=O)C(=O)Nc1ccc(Br)cc1)c1ccc(OC)c(OC)c1 3.7%
CCCc1nnc(SCc2cc(=O)c3c(C)cc(C)cc3[nH]2)n1C 5.11%
CCc1nnc(NC(=O)CSc2nccn2Cc2ccc(Cl)cc2)s1 -9.71%
COCCNC(=O)c1ccc2c(c1)ncn2-c1cc(C)ccc1OC -13%
CCOc1ccc(NS(=O)(=O)c2c(C)nc3sc(CC)nn3c2=O)cc1 -9.42%
CCc1ccc(CNC(=O)Cn2nc(C)c3nn(-c4ccc(Cl)cc4)c(C)c3c2=O)cc1 -6.38%
Cn1cccc1-c1cc2n(n1)CCC(=O)N2CCCC(=O)NCc1cccc(Cl)c1 -16.9%
O=C(NCc1cccc(Cl)c1)c1cnc(N2CCOCC2)c2ccccc12 -9.64%
O=C1CN(C(=O)Nc2ccccc2C(F)(F)F)C(c2ccccc2)c2c(sc3c2CCCC3)N1 (stereo unspecified) -18%
CCOc1ccc(CCNC(=O)CSc2cc(=O)n(C)c3ccc(Cl)cc23)cc1OCC -4.2%
COc1ccccc1NS(=O)(=O)c1cc2c(cc1Cl)NC(=O)CO2 -15.1%
Cc1cccc(N2CCN(C(=O)CCSCc3ccccc3F)CC2)c1C -9.85%
COc1ccccc1N1CCN(C(=O)Cn2ncc3c(=O)oc4ccc(C)cc4c32)CC1 -8.69%
CN(C)S(=O)(=O)c1ccc(C(=O)Nc2ccc(-n3nncc3-c3ccccc3)cc2)cc1 -7.78%
CCCc1cnc2c(c1SCc1ccc(C(F)(F)F)cc1)c(=O)n(C)c(=O)n2C -14.9%
Cc1ccc(NC(=O)CSc2ccc(-c3sc(-c4ccccc4)nc3C)nn2)cc1F -7.13%
CCN1C(=O)C2(c3ccccc31)c1c(oc3ccc(F)cc3c1=O)C(=O)N2CCCOC (stereo unspecified) -10.7%
CC(C)Oc1ccc(CNC(=O)c2ccc(Cn3c(=O)c4cccn4c4cccnc43)cc2)cc1 2.76%
COc1ccc(C2=NC(C)(C)N(CC(=O)Nc3ccc(F)c(F)c3)C2=O)cc1 3.13%
Cc1nn2c(=O)cc(COC(=O)CNC(=O)c3ccc(F)cc3)nc2s1 -11.6%
CCN1CCN(c2cc(C)c3cc(NC(=O)c4cc(Cl)ccc4OC)ccc3n2)CC1 -22%
CC(=O)c1ccc(NC(=O)Cn2c(=O)n(Cc3ccco3)c(=O)c3sc4ccccc4c32)cc1 -8.14%
Cc1ccc(N(Cc2cccs2)C(=O)COc2cccc(C)c2)cc1 -15.2%
Cc1cccc(CNC(=O)c2cnc3sc(N4CCCCCC4)nn3c2=O)c1 3.02%
COc1ccc(-c2nsc(NC(=O)c3oc4cc(C)c(C)cc4c3C)n2)cc1 5.89%
Cc1ccc(NC(=O)c2c(C)nc3sc(C(=O)Nc4ccc(F)cc4)c(N)c3c2-c2ccccc2Cl)c(C)c1 -16.9%
CCOC(=O)c1c(C)n(-c2ccccc2)c2ccc(OC(=O)c3ccccc3NC(=O)C(C)(C)C)cc12 -36.4%
Cc1ccc(OCC(O)Cn2c(=N)n(CCN3CCCCC3)c3ccccc32)cc1 (stereo unspecified) -15.2%
Cc1ccc(-n2ncc(C(=O)NCCCN3CCCCC3)c2C2CCN(C(=O)OC(C)(C)C)CC2)cc1 0.609%
COc1cccc(OC)c1C(=O)Nc1ccc(S(=O)(=O)Nc2nccc(C)n2)cc1 -4.92%
CCOc1ccc(CN2CCN(c3ncnc4sc5c(c34)CC(C)CC5)CC2)cc1 (stereo unspecified) -7.77%
COc1ccc(Cl)cc1NC(=O)c1ccc2c(c1)CCCN2S(C)(=O)=O -12%
COc1ccccc1C(=O)Nc1nnc(S(=O)(=O)N(C)c2ccc(Cl)cc2)s1 -37.6%
O=C(O)c1cc(-c2ccc(C(F)(F)F)cc2)nc2n[nH]c(-c3ccccc3)c12 -16.6%
CC(=O)c1ccc(NC(=O)Cn2cc3c(n2)CCCC3)cc1 -12.3%
CCc1ccc(S(=O)(=O)c2cn(CC)c3cc(N4CCOCC4)c(F)cc3c2=O)cc1 -11.8%
O=C(NCCSc1c(-c2ccccc2)[nH]c2ccccc12)c1ccc(S(=O)(=O)N2CCOCC2)cc1 -4.42%
Cc1nc(-c2ccccc2)sc1CCNS(=O)(=O)c1ccccc1 -35.8%
Cc1ccc(CNC(=O)C2CCN(S(=O)(=O)c3ccc4c(c3)CCCN4C(=O)C3CCC3)CC2)cc1 -3.76%
CCOc1ccc2c(c1)c(=O)c(S(=O)(=O)c1ccccc1)cn2CC(=O)Nc1ccccc1OC -3.77%
Cc1ccccc1NC(=O)CN1C(=O)C(C)(C)c2ccccc21 -12%
COc1cccc(NC(=O)c2cc3c(=O)n(C)c4ccccc4c3n2C)c1 -2.91%
COc1ccc(NC(=O)CN2C(=O)CSc3ccc(S(=O)(=O)N4CCCC4)cc32)cc1OC -3.15%
CCOc1ccc(S(=O)(=O)N(CC(=O)NCCc2ccc(OC)c(OC)c2)c2ccccc2)cc1 -9.38%
Cc1ccccc1Cn1c(CN2CCC(C(=O)NCCN(C)C)CC2)cc2ccccc21 -29.1%
Cc1cccc(C)c1NC(=O)Cn1c(=O)n(CCC(=O)NCc2ccccc2Cl)c(=O)c2sccc21 -13.9%
COc1ccc(OC)c(CCNC(=O)c2c(C)oc3ncn(C)c(=O)c23)c1 -7.53%
Cc1ccc(C2CCN(C(=O)Nc3ccc(C)c(C)c3)C2)cc1 (stereo unspecified) -5.63%
COc1cccc(C(=O)Nc2ccc(S(=O)(=O)N(Cc3ccccc3)c3ccccc3)cc2)c1 -20%
CCS(=O)(=O)N1CCc2cc(C(=O)NCCc3ccc(OC)c(OC)c3)ccc21 -0.723%
CC(C)Oc1ccc(CNC(=O)Cn2c(-c3cccs3)cc3ccccc32)cc1 -10.1%
Cc1ccc(C(=O)Nc2ccc3[nH]c(=O)c(=O)[nH]c3c2)cc1 -21.8%
Cc1cc(C)c(S(=O)(=O)NCCc2csc3nc(-c4ccc(Cl)cc4)nn23)c(C)c1 -8.85%
